Data reported in a compilation of properties of binary mixtures (doi:10.3390/app10238342).
The densities may have been worked out from excess volumes.

Assay: xn = mol fraction of the nth substance listed
Conditions: 96.7 kPa

CC(=O)[O-].CCCCCCn1cc[n+](C)c1 + CS(C)=O
mass density [kg/m3]
Conditions | x1 = 0.057 | x1 = 0.187 | x1 = 0.257 | x1 = 0.341 | x1 = 0.446 | x1 = 0.58 | x1 = 0.757 | x1 = 0.868 | x1 = 1
303.15 K | 1083 | 1066 | 1059 | 1053 | 1044 | 1035 | 1024 | 1019 | 1014
308.15 K | 1079 | – | – | 1050 | 1040 | 1031 | 1021 | 1016 | 1011
313.15 K | – | 1058 | 1051 | 1046 | 1036 | – | 1017 | 1013 | 1008
318.15 K | 1070 | 1054 | 1047 | 1042 | – | 1024 | – | 1010 | 1005
323.15 K | 1065 | 1050 | 1043 | 1038 | 1029 | 1020 | 1011 | 1006 | 1002
328.15 K | 1061 | 1046 | 1039 | 1034 | 1025 | 1017 | 1007 | 1003 | 999
333.15 K | 1056 | 1042 | 1035 | – | – | 1013 | 1004 | 1000 | 995
338.15 K | 1052 | – | 1031 | 1027 | 1018 | 1010 | – | 996 | 992.2

CS(C)=O + CC(=O)[O-].CCCCCCn1cc[n+](C)c1
x2 = 0
Conditions | mass density [kg/m3]
303.15 K | 1091
308.15 K | 1086
313.15 K | 1081
318.15 K | 1076
323.15 K | 1071
328.15 K | 1066
338.15 K | 1056
